# Among all 390,000 compounds or so, about 2,200 (0.56%) were called active. The inconclusive results got no clear call from the source; some entries with a clear call stand among them for comparison. Calls follow the shape of the dose curve; as a rule, active = well fitted inhibition curve with a large enough effect; inconclusive = small, poorly fitted or top-dose-only effect; inactive = no such curve, though single readings can be large or run the other way. Potencies of inconclusive entries are doubtful fits and often do not repeat.
# Molecular target: Chromobox protein homolog 1 (Homo sapiens) (UniProt P83916)
# Sequence of UniProt P83916 (P83916 whole entry, looked up): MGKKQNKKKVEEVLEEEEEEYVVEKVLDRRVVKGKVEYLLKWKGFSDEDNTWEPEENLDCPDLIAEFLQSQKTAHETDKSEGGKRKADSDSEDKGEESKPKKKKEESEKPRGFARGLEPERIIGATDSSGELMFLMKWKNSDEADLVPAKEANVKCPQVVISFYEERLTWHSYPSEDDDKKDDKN
# Test: HTS for Inhibitors of HP1-beta Chromodomain Interactions with Methylated Histone Tails; also: nearly all actives have a fitted effect of over 70% in size
# Details: AlphaScreen HP1-beta / biotin-H3K9me3 peptide binding; series mostly up to 114 µM; activity change, negative = inhibition: at the top concentration
# In short: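 HP1-beta protein (50 nM final) preincubated 30 min at room temperature with biotinylated H3(1-18)K9me3 peptide (50 nM) in PBS pH 7.4, 0.01% Tween-20, then compound added for 30 min. AlphaScreen streptavidin donor/nickel chelate acceptor beads (10 ug/mL final), 30 min dark, luminescence read.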
# Potency is read from the fitted curve at half-maximal effect; tags tell the direction and shape of the fitted curve.
SMILES,Potency,"activity change, negative = inhibition"
O=C(N/N=C/c1ccc(O)c(O)c1)c1ccc(CSc2cccc3cccnc23)cc1,"inconclusive: 50.1 µM [inhibitor, single point]",–
CC(=O)c1ccc(N2CCN(c3ccccc3O)CC2)c([N+](=O)[O-])c1,"inconclusive: 50.1 µM [inhibitor, partial curve]",–
Cc1ccc(NNC(=O)Nc2ccc(Cl)cc2)nn1,"inconclusive: 56.2 µM [inhibitor, partial curve, poor fit]",–
Cc1ccc(CCNC(=O)C2CCN(S(=O)(=O)N3CCOCC3)CC2)cc1,"inconclusive: 22.4 µM [inhibitor, full curve, poor fit]",–
CCOC(=O)N1CCC(Nc2c(NCCCN(CC)c3cccc(C)c3)c(=O)c2=O)CC1,–,inactive: -8.06%
NC(=O)NC(=O)CSc1nc2cc([N+](=O)[O-])ccc2n1-c1cccc(C(F)(F)F)c1,"inconclusive: 39.8 µM [inhibitor, single point]",–
O=c1c(N2CCN(c3cccc(C(F)(F)F)c3)CC2)csc2ccccc12,–,inactive: -11.2%
COc1ccc(N2CCN(C(=O)c3cccc4nc(C)oc34)CC2)cc1,–,inactive: 0.944%
O=C(Nc1ccc(Cl)c(C(F)(F)F)c1)C1CCCN(S(=O)(=O)c2cccc3cccnc23)C1 (stereo not drawn),–,inactive: 30.7%
CC(C)(C)c1ccc(CSc2nc3c(c(=O)[nH]2)CCCC3)cc1,–,inactive: 21%
Cc1ccc2c(c1)C1(OCCCO1)C(=O)N2,–,inactive: 37.5%
CS(=O)(=O)N(CC(=O)NCc1ccccc1Cl)C1CCCCC1,–,inactive: 11%
COc1ccc(-c2csc(NC(=O)c3ccccc3NS(=O)(=O)c3ccc(F)c(F)c3)n2)cc1,"inconclusive: 44.7 µM [inhibitor, partial curve]",–
O=C(CCS(=O)(=O)c1ccc(Br)cc1)N1CCN(c2ccccc2)CC1,–,inactive: -23.4%
COc1ccc(-c2c3c(=O)n(C)c(=O)n(C)c3cn2-c2cccc(N)c2)cc1,"inconclusive: 28.2 µM [inhibitor, partial curve, poor fit]",–
CCOC(=O)c1ccc([N+](=O)[O-])c(CS(=O)(=O)c2ccc(Cl)cc2)c1,"inconclusive: 50.1 µM [inhibitor, partial curve, poor fit]",–
COc1ccc(N=Nc2ccc(N)nc2N)cc1,"inconclusive: 50.1 µM [inhibitor, partial curve, poor fit]",–
O=S(=O)(CCN(CCS(=O)(=O)C(F)(F)F)CC1CCCO1)C(F)(F)F (stereo not drawn),"inconclusive: 44.7 µM [inhibitor, partial curve]",–
Fc1ccc(-c2nc(-c3cccs3)c(-c3cccs3)[nH]2)cc1,–,inactive: 13.5%
Cc1nn2c(NCCCn3ccnc3)cc(C(C)C)nc2c1-c1ccccc1,"inconclusive: 39.8 µM [inhibitor, partial curve, poor fit]",–
O=C(COc1ccc(Cl)cc1)NN=C1CCCCCCC1,–,inactive: 18.4%
Cc1sc(NC(=O)COc2ccccc2)c(C#N)c1C,"inconclusive: 12.6 µM [inhibitor, partial curve, poor fit]",–
CCOC(=O)C1CCN(C2=C(NS(=O)(=O)c3ccc(Br)cc3)C(=O)c3ccccc3C2=O)CC1,active: 7.08 µM,–
CCOC(=O)C1CCN(Cc2ccc(-c3ccccc3)cc2)CC1,"inconclusive: 14.1 µM [inhibitor, full curve, poor fit]",–
COc1ccc(CCC(=O)NCC2CCCCC2)cc1OC,–,inactive: 36.1%

SMILES,Potency,"activity change, negative = inhibition"
Cc1sc2ncnc(N/N=C/c3cccc(O)c3)c2c1C,–,inactive: -13.4%
Cc1cc(=O)n(C)c(=O)n1CCCCCN1CCCC1,"inconclusive: 56.2 µM [inhibitor, partial curve, poor fit]",–
CCN(C(=O)CSc1ncn[nH]1)c1cccc2ccccc12,"inconclusive: 79.4 µM [inhibitor, partial curve, poor fit]",–
O=C(Oc1cc(Cl)ccc1Cl)c1ccc(N2CCOCC2)c([N+](=O)[O-])c1,"inconclusive: 35.5 µM [inhibitor, partial curve]",–
CCNc1nc(N)nc(Oc2ccc(OCC(=O)OC)nn2)n1,–,inactive: 21%
COCC(C)n1c(C)cc(C(=O)CSc2ccc(NC(C)=O)cc2)c1C (stereo not drawn),"inconclusive: 89.1 µM [inhibitor, single point]",–
Cc1ccc(/C=C/C(=O)Nc2cccnc2)o1,"inconclusive: 44.7 µM [inhibitor, partial curve]",–
Cc1cc(C)nc(Nc2ccc(N3CCCC3)cc2)n1,"inconclusive: 15.8 µM [inhibitor, partial curve, poor fit]",–
COc1cc(/C=N/Nc2nc(C)nc3c2cnn3-c2ccccc2)ccc1O,–,inactive: 13.4%
CCC(C)(C)NC(=O)CN(C(=O)CCC(=O)Nc1nccs1)c1ccc2c(c1)OCCO2,–,inactive: 10.4%
CCOC(=O)C1CCCN(Cc2ccccc2OCC)C1 (stereo not drawn),"inconclusive: 56.2 µM [inhibitor, single point]",–
COc1cccc(-n2ccnc2SCC(=O)Nc2cc(OC)ccc2OC)c1,active: 44.7 µM,–
COc1ccc(Br)cc1CN(C)CC(=O)NCCc1ccccc1,"inconclusive: 15.8 µM [inhibitor, full curve]",–
Brc1ccc([C@H]2CN3CCSC3=N2)cc1,"inconclusive: 3.98 µM [inhibitor, full curve, poor fit]",–
COc1cc(C(=S)N2CCCC2)ccc1OCc1ccc(C)cc1,–,inactive: -4.98%
CCN1CCN(Cc2ccc(NC(=O)c3ccc(C)c(NC(=O)c4csc(-c5ccncc5)n4)c3)cc2C(F)(F)F)CC1,–,inactive: 10.8%
CN1CCCN(C(=O)c2cccc(Cl)c2)CC1,–,inactive: 27.8%
Cc1cc(N/N=C/c2ccc(O)cc2)nc(NS(=O)(=O)c2ccccc2)n1,active: 70.8 µM,–
COCCNC(=O)CSc1ccc(-c2nc3ccccc3[nH]2)cn1,"inconclusive: 28.2 µM [inhibitor, single point]",–
Oc1ccc(Nc2ccc3ccccc3c2)cc1,"inconclusive: 50.1 µM [inhibitor, partial curve, poor fit]",–
O=C(O)/C=C/C(=O)Nc1ccc(Oc2ncnc3cc(Cl)ccc23)nc1,–,inactive: -6.38%
CN(C)CCN(C(=O)c1ccc(C(=O)c2ccccc2)cc1)c1nc2cc3c(cc2s1)OCO3,"inconclusive: 20 µM [inhibitor, full curve]",–
CCOc1ccc(C2=Nn3c(nnc3-c3ccccc3OC)SC2)cc1,"inconclusive: 3.16 µM [inhibitor, partial curve, poor fit]",–
CC(C)(C)c1ccc(C(=O)NNC(=O)c2ccc(Cl)cc2)cc1,–,inactive: 40%
Cc1c(C(=O)Nc2nc(-c3ccccn3)cs2)oc2ccccc12,"inconclusive: 15.8 µM [inhibitor, partial curve]",–

SMILES,Potency,"activity change, negative = inhibition"
CCCc1c(C(=O)OCC)sc(N)c1C#N,"inconclusive: 35.5 µM [inhibitor, partial curve]",–
COc1ccc(NC(=O)CN(C)C(=O)CCSc2ccc(C)cc2)cc1,"inconclusive: 89.1 µM [inhibitor, single point]",–
c1ccc(CN2CCN(C(c3ccccc3)c3ccccc3)CC2)cc1,"inconclusive: 56.2 µM [inhibitor, partial curve, poor fit]",–
CCn1c(C)[n+](CC)c2ccc(S(=O)(=O)N(C)C)cc21,–,inactive: 24.2%
O=C(c1cccc2ccccc12)N1CCN(CC2CC=CCC2)CC1 (stereo not drawn),"inconclusive: 28.2 µM [inhibitor, full curve, poor fit]",–
Brc1nnc2n1-c1ccccc1Sc1ccccc1-2,–,inactive: 8.2%
CCCOc1ccc(C(=O)Nc2ccccc2[N+](=O)[O-])cc1,"inconclusive: 44.7 µM [inhibitor, partial curve, poor fit]",–
CN(CC(=O)Nc1ccc2c(c1)OCO2)S(=O)(=O)c1cccs1,"inconclusive: 79.4 µM [inhibitor, single point]",–
CN(C)CCCNC(=O)c1ccc(/C=N/O)nc1,–,inactive: -31%
O=C(N/N=C/c1ccc(O)c2ncccc12)c1cccc(Br)c1,–,inactive: 34.2%
N=c1nc(-c2ccccc2)n(-c2ccccc2)s1,"inconclusive: 8.91 µM [inhibitor, partial curve, poor fit]",–
Cc1c(CC(=O)N2CCN(C(=O)C3COc4ccccc4O3)CC2)c(=O)oc2c(O)c(O)ccc12 (stereo not drawn),"inconclusive: 28.2 µM [inhibitor, single point]",–
Cc1csc(SC(C)C(=O)Nc2ccc(Cl)cn2)n1 (stereo not drawn),–,inactive: -0.855%
CCCCCCCCc1nc(=S)[nH][nH]1,"inconclusive: 25.1 µM [inhibitor, partial curve]",–
CC1(OC(=O)C2CCCC2)C(=O)C=C2C=C(c3ccsc3)N(c3ccccc3)C=C2C1=O (stereo not drawn),"inconclusive: 31.6 µM [inhibitor, partial curve]",–
O=C(CN1CCCCCC1)NC(c1ccccc1)c1ccccc1,"inconclusive: 35.5 µM [inhibitor, partial curve]",–
Cc1ccc(NC(=O)CN(C)C(=O)c2n[nH]c(=O)c3ccccc23)cc1,–,inactive: 30.7%
CC(=O)Nc1nc(=S)n(-c2ccccc2)[nH]1,"inconclusive: 20 µM [inhibitor, full curve, poor fit]",–
CC(=O)c1cccc(N=c2scc(-c3ccc(S(=O)(=O)N4CCOCC4)cc3)n2CCO)c1,"inconclusive: 35.5 µM [inhibitor, single point]",–
COC(=O)C1(CO)NC(c2cccs2)C2C(=O)N(c3ccccc3)C(=O)C21 (stereo not drawn),–,inactive: -10.6%
COc1cccc(C2=N/C(=C\N(C)C)C(=O)O2)c1,"inconclusive: 6.31 µM [inhibitor, full curve, poor fit]",–
Cc1ccc(OCCCC(=O)NNC(=O)c2ccncc2)cc1,–,inactive: 28.3%
Cn1cnnc1SCC(=O)Nc1sc2c(c1C(N)=O)CCC2,"inconclusive: 22.4 µM [inhibitor, full curve]",–
